Over roughly 110,000 compounds, “z-score” has its median near -0.1; the highest 2% begin near 2. The list shows a part of the results. Calls of active or inactive are those of the source.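 The calls were made as follows: active = z-score in the third read window above 3 or below -3; inactive = the rest.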
target: Metabotropic glutamate receptor 8 (Rattus norvegicus) (UniProt P70579); experiment: rat mGluR8 modulators via GIRK flux, primary screen, cell-based, thallium flux, HTS (AID 488969); settings: HEK293 rat mGluR8, GIRK (G protein-gated inwardly rectifying potassium channel) thallium flux, FluoZin2; at 10 µM; stronger effect = higher value; submaximal glutamate (EC20) added with thallium
Sequence of UniProt P70579 (P70579 whole entry, looked up): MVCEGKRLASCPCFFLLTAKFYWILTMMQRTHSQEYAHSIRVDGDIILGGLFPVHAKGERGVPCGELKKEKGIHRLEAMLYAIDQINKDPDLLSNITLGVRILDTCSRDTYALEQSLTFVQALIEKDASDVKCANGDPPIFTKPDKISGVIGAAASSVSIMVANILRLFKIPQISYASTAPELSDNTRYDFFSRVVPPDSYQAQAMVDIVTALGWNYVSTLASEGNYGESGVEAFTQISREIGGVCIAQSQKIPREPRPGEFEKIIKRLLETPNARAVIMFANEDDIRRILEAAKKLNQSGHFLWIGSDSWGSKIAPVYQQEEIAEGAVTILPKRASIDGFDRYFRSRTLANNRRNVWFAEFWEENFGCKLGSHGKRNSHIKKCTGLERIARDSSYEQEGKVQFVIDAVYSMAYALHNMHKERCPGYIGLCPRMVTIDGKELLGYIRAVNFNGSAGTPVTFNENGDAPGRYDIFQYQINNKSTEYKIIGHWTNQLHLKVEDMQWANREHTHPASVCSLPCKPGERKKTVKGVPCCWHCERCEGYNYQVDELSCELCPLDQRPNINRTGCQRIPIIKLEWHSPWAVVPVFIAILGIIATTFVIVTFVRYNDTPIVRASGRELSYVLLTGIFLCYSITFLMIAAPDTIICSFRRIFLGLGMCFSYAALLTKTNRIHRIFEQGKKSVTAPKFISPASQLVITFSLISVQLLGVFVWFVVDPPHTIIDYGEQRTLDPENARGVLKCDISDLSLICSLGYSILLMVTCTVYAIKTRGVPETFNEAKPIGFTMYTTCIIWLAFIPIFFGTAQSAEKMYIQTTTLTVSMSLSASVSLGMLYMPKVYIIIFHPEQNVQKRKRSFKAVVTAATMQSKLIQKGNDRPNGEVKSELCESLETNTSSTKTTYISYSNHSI

| Compound | z-score |
| --- | --- |
| C[C@@H](C(=O)N[C@H](C(=O)O)c1ccccc1)n1nnc2ccccc2c1=O | -0.457 |
| CN1CCN(C(=O)/C=C\C(=O)O)CC1 | -0.187 |
| CCC(CC)C(=O)Nc1cccc(/C(C)=N\NC(=O)c2ccc(C)s2)c1 | -0.252 |
| CCCCCCN1N=C(C)C(C(=O)c2ccc(Cl)cc2)C1=O (centres undefined) | 0.521 |
| CCOc1ccc(NC(=O)CCS(=O)(=O)c2ccc3c(c2)CCCN3C(=O)CC)cc1 | -0.371 |
| COc1cc2c(cc1NC(=O)COc1ccc3ccccc3c1)oc1ccccc12 | -0.183 |
| O=C(NC(=S)NCc1ccc2c(c1)OCO2)c1ccccc1 | 1.1 |
| Cn1c(=O)c2c(nc(SCCN3CCOCC3)n2Cc2ccccc2)n(C)c1=O | 0.168 |
| Cc1ccc(CN2CCN(/N=C/c3ccco3)CC2)c(C)c1 | -0.87 |
| CCCn1c(N)c(C(=O)CSc2nnc(Cc3ccccc3)o2)c(=O)n(C)c1=O | 0.262 |
| O=C(OCCN1CCN(c2ncc(C(F)(F)F)cc2Cl)CC1)c1ccc(F)cc1 | 0.0101 |
| CCn1c(CC(=O)Nc2ccc(Cl)c(Cl)c2)nnc1SCc1ccc(Cl)cc1 | 0.171 |
| COc1ccc(NC(=O)CSc2ncn(-c3ccccc3)n2)cc1Cl | -0.728 |
| NC(=O)c1ccccc1NC(=S)NC(=O)CCc1ccccc1 | -0.237 |
| O=C(NCc1ccc(F)cc1)C(=O)NCC1OCCN1C(=O)c1cccs1 (centres undefined) | -0.139 |
| Cc1cc(C)n2cc(CSc3nc4ccccc4[nH]3)nc2n1 | -0.0877 |
| O=C(COc1ccccc1)Nc1sc2c(c1C(=O)NCc1cccnc1)CCCC2 | -0.764 |
| Cc1nonc1NC(=O)c1ccccc1Br | 0.549 |
| O=C(NNC(=O)C1CC1c1ccccc1)Nc1cccc(Cl)c1 (centres undefined) | -0.494 |
| C/C(=N/NC(=O)CSCc1ccc(Cl)cc1)c1cccc(NC(=O)c2ccccc2)c1 | -0.135 |
| CCOC(=O)N1CCC(NC(=O)CCc2nc(-c3ccccc3F)no2)CC1 | -0.079 |
| Fc1c(F)c(F)c(CSc2nc3ccccc3[nH]2)c(F)c1F | -0.953 |
| CSc1nc(Sc2ccccc2)c2ccccc2n1 | active: 4.56 |

| Compound | z-score |
| --- | --- |
| CC1(C(=O)N(c2ccccc2)C(C(=O)NC2CCCC2)c2ccccn2)CC(=O)N=C2C=CC=CN21 (centres undefined) | -0.234 |
| C1CCN(c2c3c(nc4nnnn24)CCCC3)CC1 | -0.00581 |
| CS(=O)(=O)N1CCc2cc(S(=O)(=O)N3CCN(Cc4ccc5c(c4)OCO5)CC3)ccc21 | 0.0585 |
| Nc1cc(-c2ccc(Cl)cc2)nn1S(=O)(=O)c1ccccc1 | -0.106 |
| CCOc1ccc(C(CC(=O)O)NC(=O)c2ccco2)cc1 (centres undefined) | -0.274 |
| Cc1ccc(N(CC(=O)NCc2ccco2)S(=O)(=O)c2ccccc2)cc1 | 0.374 |
| COc1ccc(-c2nc(NC(=O)c3ccc(OCC(=O)N4CCOCC4)c(OC)c3)sc2C)cc1 | -0.218 |
| Cc1ccccc1N(CC(=O)NCC1CCCO1)C(=O)C1(C)CC(=O)N=C2C=CC=CN21 (centres undefined) | -0.358 |
| CCOC(=O)c1c(C2CC2)csc1NC(=O)COC(=O)c1ccc[n+]([O-])c1 | -0.472 |
| COC(=O)Nc1ccc(S(=O)(=O)N2CCCC(C(=O)Nc3cccc4c3OCCO4)C2)cc1 (centres undefined) | -1.14 |
| Cc1ccc2cc(CN(CC3CCCO3)C(=S)NCc3ccco3)c(=O)[nH]c2c1C (centres undefined) | -0.303 |
| Cc1ccccc1OCCNC(=O)CNC(=O)c1ccccc1O | 0.335 |
| C=CCn1c(-c2cc(OC)c(OC)c(OC)c2)n[nH]c1=S | 0.16 |
| Cc1ccc2c(c1)c1c3n2CC(=C2C(=O)OC(C)(C)OC2=O)NC3CCC1 (centres undefined) | -0.111 |
| CCOc1ccccc1OCCOc1cccc(C(F)(F)F)c1 | -0.315 |
| CC1CCC2(CC1)NC(=O)N(CC(=O)c1ccc[nH]1)C2=O (centres undefined) | 0.214 |
| Cc1ccc(C)c(NC(=O)Cc2csc(-c3ccccc3)n2)c1 | -0.0885 |
| CCC(=O)Nc1cccc(NC(=S)NC(=O)c2cccs2)c1 | -0.0637 |
| O=C(CNc1ccccc1)N/N=C/c1cn(-c2ccccc2)nc1-c1ccccc1 | -0.0559 |
| CCNC(=O)c1c(N)sc2c1CCCCC2 | -0.0864 |
| COc1ccnc(N2CCN(c3cccc(C(F)(F)F)c3)CC2)c1C#N | -0.298 |
| CN1CCN(c2nc3c(c(=O)[nH]c(=O)n3C)n2CCCSc2ncccn2)CC1 | -0.549 |
| CCc1ccc2[nH]c(=O)c(C(c3nnnn3Cc3ccco3)N3CCC(C)CC3)cc2c1 (centres undefined) | -0.27 |

| Compound | z-score |
| --- | --- |
| COc1cc(/C=C(\C#N)c2[nH]nc(N)c2C#N)cc(OC)c1O | 0.353 |
| CN1CCN(NC(=O)c2ccccc2F)CC1 | -0.0659 |
| COc1ccc2c(c1)cc1n2CCN2CCCN=C12 | -0.172 |
| CC(C)C(=O)N1CCN(c2ccc(NC(=O)c3cccs3)cc2)CC1 | -0.0556 |
| Cn1nc([N+](=O)[O-])nc1N1CCN(c2ccc(F)cc2)CC1 | -0.0347 |
| Cc1ccccc1N1CCN(C(=O)c2ccccc2NC(=O)/C=C\C(=O)O)CC1 | -0.319 |
| O=C(CN1CCC(c2nc3ccccc3s2)CC1)NCc1cccs1 | -0.352 |
| Clc1cccc(/C=N/Nc2nnc(Cl)c3ccccc23)c1 | 0.178 |
| COC(=O)/C=C/C(=O)N1CCN(c2ccccc2C)CC1 | 0.352 |
| CC1CCC2C(=O)N(c3ccc(S(=O)(=O)c4ccccc4)cc3)C(=O)C2C1 (centres undefined) | -0.325 |
| COc1cc(NC(=O)CSc2nnc3n2C(C)(C)Cc2ccccc2-3)cc(OC)c1 | 0.158 |
| O=C(CSc1nnc(Cc2cccs2)n1Cc1ccco1)Nc1cccc(Cl)c1 | -0.645 |
| COCCN1C(=O)C(=O)/C(=C(/O)c2cccc(OC)c2)C1c1ccc(C)o1 (centres undefined) | -0.575 |
| CN1CCN(CC(=O)N2c3ccccc3C(C)(c3ccccc3)CC2(C)C)CC1 (centres undefined) | active: 3.59 |
| CN1C(=O)CC(N2CCN(C(=O)c3ccccc3)CC2)C1=O (centres undefined) | 0.26 |
| CCc1nnc(NC(=O)c2ccc3c(c2)C(=O)N(CC(C)C)C3=O)s1 | -0.103 |
| CC(C)c1nnc(NC(=O)C2CCN(c3cnccn3)CC2)s1 | 0.893 |
| Cc1nn(-c2cc(N3CCCCC3)ccc2N)c(=O)c2ccccc12 | -0.187 |
| COCCNC(=O)c1onc(CSc2ccc(Cl)cc2)c1C(=O)O | -0.0433 |
| Nc1nn(-c2ccccc2)c(N)c1N=Nc1ccccc1F | -0.34 |
| O=C(NCc1cccnc1)c1nnc(Cc2ccc(F)cc2)o1 | 1.02 |
| CCSc1ccccc1C(=O)N1CCN(c2ccccc2F)CC1 | 0.749 |
| CC(=O)c1ccc(N2Cc3ccccc3/C2=N\C(=O)Nc2ccccc2)cc1 | -0.211 |

From PubChem BioAssay AID488969 (Vanderbilt High Throughput Screening Facility, 2010)
